SMILES strings stand for the structures. The whole screen tested about 45,000 compounds, of which about 65 (0.1%) were called active. Calls follow the shape of the dose curve; as a rule, active = well fitted activation curve with a large enough effect; inconclusive = small, poorly fitted or top-dose-only effect; inactive = no such curve, though single readings can be large or run the other way. This is one part of the list.

UniProt P54803, sequence (P54803 whole entry, looked up): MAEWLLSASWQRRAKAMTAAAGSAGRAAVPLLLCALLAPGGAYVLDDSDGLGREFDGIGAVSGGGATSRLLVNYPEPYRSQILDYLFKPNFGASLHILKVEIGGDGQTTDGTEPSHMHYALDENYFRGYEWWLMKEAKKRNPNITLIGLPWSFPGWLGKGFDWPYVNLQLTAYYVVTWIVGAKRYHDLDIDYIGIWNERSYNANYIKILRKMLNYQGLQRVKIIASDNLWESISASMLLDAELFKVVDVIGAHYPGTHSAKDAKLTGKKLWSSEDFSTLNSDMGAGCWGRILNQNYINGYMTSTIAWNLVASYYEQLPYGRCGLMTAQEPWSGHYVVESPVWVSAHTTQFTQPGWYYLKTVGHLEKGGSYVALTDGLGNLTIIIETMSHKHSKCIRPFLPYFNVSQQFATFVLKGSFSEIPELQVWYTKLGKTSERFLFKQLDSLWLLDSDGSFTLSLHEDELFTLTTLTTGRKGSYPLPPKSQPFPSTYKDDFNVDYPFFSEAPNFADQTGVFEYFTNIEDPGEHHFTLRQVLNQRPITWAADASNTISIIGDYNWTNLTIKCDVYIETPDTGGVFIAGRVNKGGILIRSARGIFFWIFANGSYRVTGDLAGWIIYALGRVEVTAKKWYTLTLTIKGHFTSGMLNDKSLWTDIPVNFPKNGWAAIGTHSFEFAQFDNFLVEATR

The assay deals with Galactocerebrosidase (Homo sapiens) (UniProt P54803). As to the kind of experiment: A Novel Cell-Based Assay to Identify Small Molecules for B -Galactocerebrosidase. Also: 0% is about no effect; nearly all actives have a fitted effect of over 65% in size. As to conditions: 145M-Twi-hGALC-G270D cells (Twitcher mouse brain line with human GALC G270D), HMU-beta-Gal fluorescence, 48 h; series mostly up to 57.5 µM; activation: at the top concentration. A digest of the protocol:
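Live 145M-Twi cells (Twitcher mouse brain-derived, GALC-null) stably expressing human GALC-G270D, with a wild-type GALC line, were compound-treated. Residual GALC activity was then read as fluorescence from 0.1 mM final HMU-β-gal at pH 5.2; higher signal means activation.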
Regarding `O=C(CSc1nccn1-c1cccc(Cl)c1)Nc1ccc2c(c1)OCO2`, the “activation” value is inactive: -7.1%.
With `CCN(C(=O)C1CCN(S(=O)(=O)c2cc(Br)cc3c2N(C(C)=O)CC3)CC1)c1cccc(C)c1` the figure was inactive: -10.8%.
As to `CCC(=O)C1=C(c2ccc(F)cc2)N(C(=O)CC)n2c(nnc2-c2ccc(OC)cc2)S1`, the “activation” value is inactive: -13.2%.
With `Cn1c(=O)oc2cc(S(=O)(=O)CCC(=O)N3CCN(c4ccccc4F)CC3)ccc21` the figure was inactive: -12.5%; with `O=C(CCn1c(=O)c2cccn2c2cccnc21)N1CCN(c2ccccc2)CC1`, inactive: -11.7%.
With `CCc1nn(CC(=O)N2CCN(c3ccc(OC)cc3)CC2)c(=O)c2cc3sccc3n12` the figure was inactive: 1.63%.
With `CC[C@@]1(c2ccccc2)NC(=O)N(C)C1=O` the figure was inactive: -13.8%.
In the case of `CC(CCc1ccccc1)NC(=O)Cn1ncc2c3ccccc3n(Cc3ccccc3F)c2c1=O` (configuration not stated), the “activation” value is inactive: -8.27%.
With `Cc1nc2ccccc2c(=O)n1-c1ccc(NC(=O)c2ccccc2[N+](=O)[O-])cc1` the figure was inactive: -5.84%; with `CCN(Cc1ccccc1)C(=O)Cn1c(=O)n(-c2ccccc2)c(=O)c2c1c1cc(C)ccc1n2C`, inactive: -9.29%.
With `O=C(CSc1nc(=O)[nH]c2c1CCC2)NCc1ccccc1Cl` the figure was inactive: -9.65%.
With `CCc1ccc(CSc2nc(-c3ccccc3F)nc3c2Cc2c(CO)cnc(C)c2O3)cc1` the figure was inactive: -15.2%.
Consider `Cc1ccc(-c2cc(C(=O)Oc3ccc(C#N)cc3)no2)cc1`, for which the “activation” value was inactive: -5.26%.
Turning to `CCn1c(SCC(=O)Nc2ccccc2C(=O)OC)nc2ccsc2c1=O`, the “activation” value is inactive: -8.56%.
Take `CCC(=O)NNc1ncnc2c1cnn2-c1ccc(C)c(Cl)c1`: the “activation” value was inactive: -7.58%.
With `CCC(C)NC(=O)c1nn(-c2ccc(C)cc2)nc1CO` (configuration not stated) the figure was inactive: 6.13%; with `COc1ccc(OC(=O)c2nc(SCc3ccccc3F)ncc2Cl)cc1`, inactive: -12.3%; with `Cc1ccc(NC(=O)Cn2c(=O)n(Cc3ccco3)c(=O)c3oc4ccccc4c32)cc1C`, inactive: -17.7%.
With `O=C(Nc1ccc2nc(SCC(=O)N3CCOCC3)sc2c1)c1cccc(Br)c1` the figure was inactive: -11%.
With `Cc1cccc(CNC(=O)C2CCC(CNS(=O)(=O)c3ccc4c(c3)CCCC(=O)N4)CC2)c1` (configuration not stated) the figure was inactive: -15%; with `CC(C)(C)c1ccc(C(=O)NCC(c2cccnc2)N2CCc3ccccc3C2)cc1` (configuration not stated), inactive: -24.3%.
In the case of `Cc1cccc(CN2C(=O)c3ccccc3Sc3ccc(C(=O)NC4CCCCC4)cc32)c1`, the “activation” value was inactive: -11.2%.
With `Cc1cccc(-c2nc(C)c(CCNC(=O)C(=O)Nc3ccccc3C#N)s2)c1` the figure was inactive: -8.75%; with `COc1ccc(-n2nnnc2C2CCN(S(=O)(=O)c3ccc(NC(C)=O)cc3)CC2)cc1`, inactive: -2.03%; with `CCn1c(=N)c(C(=O)NCc2ccccc2)cc2c(=O)n3cccc(C)c3nc21`, inactive: -9.36%.
With `COc1ccc(Cl)cc1S(=O)(=O)NCc1ccc2c(c1)CCN2C(=O)c1cccc(C)c1` the figure was inactive: -16.6%; with `CC(C)c1ccc(C2NC(=O)c3n[nH]c(-c4cccs4)c32)cc1` (configuration not stated), inactive: -8.96%.
With `Cc1ccc(NC(=O)CCC(=O)N2Cc3ccccc3Oc3ncccc32)c(C)c1` the figure was inactive: -7.84%; with `Cc1ccc(C(C)C)c(OCC(O)CN2CCN(c3ccccc3F)CC2)c1` (configuration not stated), inactive: -2%.
Turning to `Cc1cccc(NC(=O)CSc2nc(-c3ccccc3)cc(=O)[nH]2)c1C`, the “activation” value is inactive: -6.35%.
With `CCOc1ccc(CCNC(=O)CN2C(=O)COc3ccc(S(=O)(=O)N4CCCC4)cc32)cc1` the figure was inactive: -13%; with `Cc1ccc(S(=O)(=O)N(CC(=O)Nc2ccc(Cl)cc2Cl)c2ccccc2C)cc1`, inactive: -21%.
With `COc1ccccc1C(=O)Nc1cccc(C(=O)OCc2cc(=O)n3ccsc3n2)c1` the figure was inactive: -20.8%; with `Cc1ccc(CNC(=O)C(C)n2nc(C)n3c(cc4sccc43)c2=O)cc1` (configuration not stated), inactive: -16.5%; with `CCOC(=O)C1CCCN(C(=O)c2ccc3c(c2)sc2nc(-c4ccc(CC)cc4)cn23)C1` (configuration not stated), inactive: -2.18%.
For the compound `Cc1oc(-c2ccc(C(=O)NCc3cccc(F)c3)cc2)nc1COc1ccccc1`, the “activation” value is inactive: -12.9%.
For the compound `COC(=O)c1ccc2c(=O)n(CCCCCC(=O)NCCc3ccc(Cl)cc3)c(=O)[nH]c2c1`, the “activation” value is inactive: -24%.
With `CCOC(=O)c1ccc(N2C(=O)c3n[nH]c(-c4ccco4)c3C2c2cccc(OC)c2)cc1` (configuration not stated) the figure was inactive: -2.57%; with `Cc1ccccc1NC(=O)CSc1nc2ccccc2c2nc(CCn3cncc3C)nn12`, inactive: -15.5%.
With `CCn1c(C(=O)N2CCC(C(=O)NCCc3ccc(C)cc3)CC2)cc2sccc21` the figure was inactive: -15.5%.
With `Cc1ccc(Cn2ccnc2SCC(=O)NCc2ccccc2Cl)cc1` the figure was inactive: 5.2%.
As to `N#Cc1c(C(F)(F)F)cc(-c2ccc(F)cc2)nc1SCC(=O)Nc1ccccc1`, the “activation” value is inactive: -18.4%.
With `O=C1CC(c2nc(-c3ccccc3)no2)CN1c1ccccc1` (configuration not stated) the figure was inactive: -2.15%.
With `CCOc1ccc(N2CC(c3nc4ccccc4n3CCOc3ccccc3OC)CC2=O)cc1` (configuration not stated) the figure was inactive: -20.6%; with `CCc1nc2ccc(C(=O)NCc3cc(OC)ccc3OC)cc2nc1CC`, inactive: -13.6%.
With `COC(=O)c1nc(Cl)c(Cl)nc1N` the figure was inactive: -15.2%.
`Cc1cccc(NS(=O)(=O)c2ccc3c(c2)CC(C)N3C(=O)C2CCC2)c1C` (configuration not stated): the “activation” value is inactive: -11.5%.
Turning to `O=C(CCS(=O)(=O)c1ccc(Br)cc1)Nc1ccc(F)cc1F`, the “activation” value was inactive: -3.65%.
With `CCc1ccc(CNc2ccc3c(c2)ncn3C(C)(C)C)cc1` the figure was inactive: -15.4%.
Turning to `Cc1ccc(-c2nc3ncccn3c2Nc2ccc3c(c2)OCCO3)cc1`, the “activation” value was inactive: -6.13%.
For the compound `COc1cccc2c1cc1c(=O)n(CC(=O)N3CCN(c4ccccc4)CC3)nc(C)n12`, the “activation” value was inactive: -4.37%.
With `Cc1cc(OC(C)C(=O)Nc2cccc(-c3nc4ccccc4o3)c2)cc(C)c1Cl` (configuration not stated) the figure was inactive: 0.233%; with `Cc1ccc(Cn2c(C)c3cnn(CC(=O)NCc4ccccc4)c(=O)c3c2C)cc1`, inactive: 0.961%; with `CC(=O)N1CCc2cc(S(=O)(=O)CCC(=O)Nc3ccc(C)cc3Br)ccc21`, inactive: -14.5%.
With `CCN(CC)c1ccc(NC(=O)c2cnn(-c3ccccc3)c2-n2cccc2)c(C)c1` the figure was inactive: -10.9%.
With `COc1ccc(-c2nc(CSCC(=O)N3CCN(c4cc(Cl)ccc4C)CC3)c(C)o2)cc1` the figure was inactive: -30.5%.
Take `CCOc1ccc(CCNC(=O)CS(=O)(=O)Cc2nc(-c3ccc(OC)cc3)oc2C)cc1`: the “activation” value was inactive: -23.3%.
Take `Cc1cccc2sc(N(CCN(C)C)C(=O)c3ccc4c(c3)OCCO4)nc12`: the “activation” value was inactive: -4.71%.
With `COc1ccc(Cn2c(=O)n(Cc3ccco3)c(=O)c3oc4ccccc4c32)cc1` the figure was inactive: -5.94%; with `Cc1nc2cc(-c3ccccc3)nn2c(C)c1CCC(=O)Nc1ccc(F)cc1F`, inactive: -24.2%.
With `Cc1ccc(CNC(=O)CCCn2c(=O)c3ccccc3n(CC(=O)Nc3ccc(C)cc3)c2=O)cc1` the figure was inactive: -2.92%.
With `CCC(C(=O)Nc1ccc(C)c(C)c1)n1c(=O)c(C(F)(F)F)nc2ccccc21` (configuration not stated) the figure was inactive: 6.71%.

The values above are taken from PubChem BioAssay AID1159614 (National Center for Advancing Translational Sciences (NCATS), 2016).
